The values below come from PubChem BioAssay AID1745853 (National Center for Advancing Translational Sciences (NCATS), 2022).

Values joined by “and” are separate entries in the source; they are usually repeats but may differ in a detail not shown here. Identical values can stand only once. The list shows a part of the results. Further columns of the screen follow, without active or inactive calls.

Assay in all cases: Primary Screen for Target Class Profiling of Small Molecule Inhibitors of Methyltransferases
Test [1] deals with Glycine N-methyltransferase (Homo sapiens) (UniProt Q14749). The settings on record: purified enzyme, MTase-Glo SAH luminescence; measured here: GNMT inhibition; at 40 µM; stronger effect = lower value. The method, boiled down: (§1)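 Each enzyme was assayed with SAM and its substrate. SAH formation detected by MTase-Glo luminescence; single-point 40 uM screen[…].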
Test [2] deals with Guanidinoacetate N-methyltransferase (Homo sapiens) (UniProt Q14353). The settings on record: purified enzyme, MTase-Glo SAH luminescence; measured here: GAMT inhibition; at 40 µM; stronger effect = lower value. The method, boiled down:
as §1

Test [3] concerns the target Histamine N-methyltransferase (Homo sapiens) (UniProt P50135). Particulars: purified enzyme, MTase-Glo SAH luminescence; measured here: HNMT inhibition; at 40 µM; stronger effect = lower value. The method, boiled down:
as §1

In test [4] the target is Nicotinamide N-methyltransferase (Homo sapiens) (UniProt P40261). Particulars: purified enzyme, MTase-Glo SAH luminescence; measured here: NNMT inhibition; at 40 µM; stronger effect = lower value. The essentials:
as §1

Test [5] deals with Phenylethanolamine N-methyltransferase (Homo sapiens) (UniProt P11086). Particulars: purified enzyme, MTase-Glo SAH luminescence; measured here: PNMT inhibition; at 40 µM; stronger effect = lower value. The essentials: as §1
% is scaled to controls: 0 for no effect and ±100 for the full control effect.

Turning to `Cc1onc(-c2ccccc2)c1C(=O)N[C@@H]1C(=O)N2[C@@H]1SC(C)(C)[C@@H]2C(=O)O`, the activity change, negative = inhibition in test [1] was 1.59% and 5.72%; in test [2] it was 6% and 7.12%; in test [3] it was 2.91% and 4.05%; in test [4], -13.1% and -9.89%; in test [5] it was -3.67% and 0.45%.
Consider `COc1cccc(CN2CCc3nn(Cc4ccccc4)c(=O)n3CC2)n1`, for which the activity change, negative = inhibition in test [1] is -1.43%; in test [2] it was -0.078%; in test [3], -0.125%; in test [4], -0.678%; in test [5], -2.64%.
As for `CC(C)OCCCNC(=O)C1c2c(n(C)c3ccccc23)SCC(=O)N1Cc1cccs1` (stereo not drawn), the activity change, negative = inhibition in test [1] is 5.46%; in test [2], 4.64%; in test [3], -2.75%; in test [4], 1.31%; in test [5], 0.803%.
In the same order, the values of `CC(C)C(=O)N1CCn2c(nnc2C2CCN(Cc3cc(Cl)ccc3F)C2)C1` (stereo not drawn) are -4.94%, -7.04%, -2.57%, -9.59% and -7.61%.
As for `O=C(OC[C@H]1O[C@H](O[C@]2(CO)O[C@H](CO)[C@@H](O)[C@@H]2O)[C@H](O)[C@@H](O)[C@@H]1O)c1ccc(O)cc1`, the activity change, negative = inhibition in test [1] is 3.9%; in test [2], 2.51%; in test [3] it was 6.75%; in test [4], -9.03%; in test [5] it was -3.96%.
Regarding `Cc1ccc(NS(=O)(=O)c2ccc3[nH]c4c(c3c2)CCCC4)c(Br)c1`, the activity change, negative = inhibition in test [1] was 3.75%; in test [2], 1.12%; in test [3] it was 3.05%; in test [4], -6.52%; in test [5] it was 2.94%.
With `COc1ccc(OC)c(S(=O)(=O)N2CCC(N3C[C@H](OC)[C@@H]3c3ccncc3)CC2)c1`, the activity change, negative = inhibition was -5.87% in test [1]; 4.19% in test [2]; -5.2% in test [3]; -5.66% in test [4]; -4.67% in test [5].
With `CN(C)C[C@@H]1CN(Cc2ccncc2)C[C@H]1NC(=O)Cc1ccsc1`, the activity change, negative = inhibition in test [1] was -5.11%; in test [2], -1.08%; in test [3], -0.676%; in test [4], -4.96%; in test [5] it was -11.4%.
Consider `CN(C)[C@@H](CCOc1cccc2ccccc12)c1ccccc1`, for which the activity change, negative = inhibition is 13.1% in test [2], -9.29% in test [4] and -0.568% in test [5].
In the case of `Cc1c(Cl)cccc1N1C(=O)c2cc(C(C)(C)C)nn2CC1(C)C(=O)NCc1ccccc1` (stereo not drawn), the activity change, negative = inhibition was determined as 7.93% in test [1]; 0% in test [2]; 7.83% in test [3]; 5.63% in test [4]; 2.69% in test [5].
In the same order, the values of `C=C1CC[C@@H]2[C@](C)(CO)[C@H](O)CC[C@@]2(C)[C@@H]1C/C=C1/C(=O)OCC1O` (stereo partly drawn) are -3.45%, 0.125%, 5.63%, -12.3% and -49.4%.
In the same order, the values of `Cc1c(Cl)cccc1N1C(=O)c2cc3ccccc3n2CC1(C)C(=O)NCCC(C)C` (stereo not drawn) are 8.28%, 0.319%, 7.59%, 9.29% and 3.48%.
Regarding `Cc1ccccc1CNC(=O)Cn1ccc2cc(S(=O)(=O)N3CCC(C)CC3)ccc21`, the activity change, negative = inhibition in test [1] is 2.92%; in test [2] it was 0%; in test [3] it was -3.68%; in test [4], 1.94%; in test [5] it was 1.67%.
In the same order, the values of `c1ccc(CN(Cc2nc(-c3ccccn3)no2)CC2CC2)cc1` are -1.15%, 3.59%, 0.891%, -5.15% and 10.9%.
For the compound `CCC(C)NC(=O)CCc1nnc2n(Cc3ccc(Cl)cc3)c(=O)c3ccccc3n12` (stereo not drawn), the activity change, negative = inhibition in test [1] was -10%; in test [2] it was 3.22%; in test [3] it was 1.02%; in test [4], -0.223%; in test [5] it was -6.46%.
As to `CN(C)CCCC1(c2ccc(F)cc2)OCc2cc(C#N)ccc21` (stereo not drawn), the activity change, negative = inhibition was -4.17% and 2.67% in test [1]; 11.7% and 14.1% in test [2]; -68% and -59% in test [3]; -9.81% and -3.38% in test [4]; 5.17% and 6.36% in test [5].
For `Nn1nnc2ccccc21`, the activity change, negative = inhibition in test [1] is -5.67%; in test [2] it was 4.96%; in test [3] it was -1.45%; in test [4], -6.6%; in test [5], 6.66%.
For `CCN(CCCN1C(=O)c2cc3occc3n2CC1(C)C(=O)NC1CCCCC1)c1cccc(C)c1` (stereo not drawn), the activity change, negative = inhibition was -0.083% in test [1]; 3.6% in test [2]; -0.127% in test [3]; 0.852% in test [4]; -0.072% in test [5].
Regarding `O=C(NCc1ccncc1)C(=O)NCC(c1cccnc1)N1CCOCC1` (stereo not drawn), the activity change, negative = inhibition in test [1] was -5.46%; in test [2], -1.02%; in test [3], 7.85%; in test [4] it was -13.1%; in test [5], -0.714%.
Taken in the same sequence, the figures for `C/C=C1/C[N+](C)([O-])C2Cc3c([nH]c4ccccc34)C(=O)CC1C2C(=O)OC` (stereo not drawn) were -4.77%, -2.98%, 5.47%, -18% and 2.35%.
In the same order, the values of `CN(C)C(=O)c1nc(-c2cccc(C(F)(F)F)c2)c2cnccn12` are -5.33%, -4.56%, -3.05%, -5.14% and -1.81%.
`COc1ccc(OC)c(CCNC(=O)Cn2ccc3cc(S(=O)(=O)N4CCCCC4)ccc32)c1`: the activity change, negative = inhibition in test [1] is -5.36%; in test [2], -4.04%; in test [3] it was -10.4%; in test [4], -12.2%; in test [5], -21.6%.
On to `O=C(c1ccc(Cl)s1)N1CCC2(COc3ncccc3S(=O)(=O)N2)C1` (stereo not drawn), for which the activity change, negative = inhibition in test [1] was -8.82%; in test [2], -8.86%; in test [3], -3.13%; in test [4] it was -16.3%; in test [5], -10.9%.
As for `CCCC(CCC)C(=O)O`, the activity change, negative = inhibition in test [1] was 7.86%; in test [2], 14.3%; in test [3] it was 12.4%; in test [4], -5.04%; in test [5], -0.25%.
In the same order, the values of `COC(=O)N(C)Cc1cccc(C(F)(F)F)c1` are -4.59%, -4.95%, -1.76%, -6.61% and -6.37%.
In the same order, the values of `CCC(C)NC(=O)c1ccc2c(=O)n(C)c3nnc(SCC(=O)c4ccc(OC)cc4)n3c2c1` (stereo not drawn) are 5.58%, 0.257%, 5.79%, 8.7% and 5.98%.
With `COc1ccc(-c2cc3n(n2)CC(C)(C(=O)NC2CCCCC2)N(Cc2cccc(F)c2)C3=O)cc1` (stereo not drawn), the activity change, negative = inhibition in test [1] is -2.81%; in test [2], 0.938%; in test [3], -0.795%; in test [4], -0.838%; in test [5], -7.06%.
Taken in the same sequence, the figures for `Cc1ccccc1NC(=O)N1Cc2c(sc3c2CCCC3)-n2cccc2C1c1cc(F)cc(F)c1` (stereo not drawn) were -5.87%, 1.83%, -2.86%, -7.09% and -2.34%.
Taken in the same sequence, the figures for `O=C(NCc1ccncc1)c1nc2c(o1)CCN(CCCc1ccccc1)CC2` were -12.6%, -6.44%, -10.9%, -10.4% and -45.9%.
Taken in the same sequence, the figures for `CC(C)(C)C(=O)Nc1nc2c(s1)C[C@@H]1[C@](C)(CO)[C@H](O)CC[C@@]1(C)[C@@H]2CC(=O)O` were -3.6%, -3.04%, 0.307%, -3.29% and 3.12%.
